# In the supplement of paper PMC8728848:
# Some of the results follow.
# B1: Galatrox (Botrops atrox), P0DM53 (protein)
# chain: NNCPQDWLPMNGLCYKIFDELKAWKDAEMFCRKYKPGCHLASIILYGESPEWAEGHSEVWLGLWDKKKDFSWEWTDR
# Assays:
# Experiment in all cases: glycan array binding signal (z-score within array); higher = stronger binding
# Conditions in all cases: glycan notation: IUPAC condensed, linker removed
# [1] = molecular target: Neu5Ac(a2-3)Gal(b1-3)GlcNAc(b1-3)Gal(b1-3)GlcNAc
# In short: (§1)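 The binding signal is a Z-score computed within each array and averaged over linkers. Arrays of the same protein sequence at different concentrations or buffers were also averaged together. Data originate from 3228 arrays in the Consortium for Functional Glycomics database, kept only where the protein sequence was available.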
# [2] = molecular target: Neu5Ac(a2-3)Gal(b1-3)GlcNAc(b1-3)Gal(b1-4)GlcNAc
# In short: as §1
# [3] = molecular target: Neu5Ac(a2-3)Gal(b1-3)GlcNAc(b1-3)GalNAc
# In short: as §1
# [4] = molecular target: Neu5Ac(a2-3)Gal(b1-3)GlcNAc6S
# In short: as §1
# [5] = molecular target: Neu5Ac(a2-3)Gal(b1-3)[Fuc(a1-4)]GlcNAc
# In short: as §1
# [6] = molecular target: Neu5Ac(a2-3)Gal(b1-3)[Fuc(a1-4)]GlcNAc(b1-3)Gal(b1-3)[Fuc(a1-4)]GlcNAc
# In short: as §1
# [7] = molecular target: Neu5Ac(a2-3)Gal(b1-3)[Fuc(a1-4)]GlcNAc(b1-3)Gal(b1-4)[Fuc(a1-3)]GlcNAc
# In short: as §1
# [8] = molecular target: Neu5Ac(a2-3)Gal(b1-3)[Neu5Ac(a2-3)Gal(b1-4)]GlcNAc
# In short: as §1
# [9] = molecular target: Neu5Ac(a2-3)Gal(b1-3)[Neu5Ac(a2-6)]GalNAc
# In short: as §1
# [10] = molecular target: Neu5Ac(a2-3)Gal(b1-4)Glc
# In short: as §1
# [11] = molecular target: Neu5Ac(a2-3)Gal(b1-4)GlcNAc
# In short: as §1
# [12] = molecular target: Neu5Ac(a2-3)Gal(b1-4)GlcNAc(b1-2)Man(a1-3)[GlcNAc(b1-2)Man(b1-4)GlcNAc(b1-2)Man(a1-6)]Man(b1-4)GlcNAc(b1-4)GlcNAc
# In short: as §1
# [13] = molecular target: Neu5Ac(a2-3)Gal(b1-4)GlcNAc(b1-2)Man(a1-3)[Neu5Ac(a2-6)Gal(b1-4)GlcNAc(b1-2)Man(a1-6)]Man(b1-4)GlcNAc(b1-4)GlcNAc
# In short: as §1
# [14] = molecular target: Neu5Ac(a2-3)Gal(b1-4)GlcNAc(b1-3)Gal(b1-3)GlcNAc
# In short: as §1
# [15] = molecular target: Neu5Ac(a2-3)Gal(b1-4)GlcNAc(b1-3)Gal(b1-4)GlcNAc
# In short: as §1
# [16] = molecular target: Neu5Ac(a2-3)Gal(b1-4)GlcNAc(b1-3)Gal(b1-4)GlcNAc(b1-3)Gal(b1-4)GlcNAc
# In short: as §1
# [17] = molecular target: Neu5Ac(a2-3)Gal(b1-4)GlcNAc(b1-3)Gal(b1-4)[Fuc(a1-3)]GlcNAc
# In short: as §1
# [18] = molecular target: Neu5Ac(a2-3)Gal(b1-4)GlcNAc(b1-3)GalNAc
# In short: as §1
# [19] = molecular target: Neu5Ac(a2-3)Gal(b1-4)GlcNAc(b1-6)[Gal(b1-3)]GalNAc
# In short: as §1
# [20] = molecular target: Neu5Ac(a2-3)Gal(b1-4)GlcNAc(b1-6)[Neu5Ac(a2-3)Gal(b1-3)]GalNAc
# In short: as §1
# [21] = molecular target: Neu5Ac(a2-3)Gal(b1-4)GlcNAc6S
# In short: as §1
# [22] = molecular target: Neu5Ac(a2-3)Gal(b1-4)[Fuc(a1-3)]GlcNAc
# In short: as §1
# [23] = molecular target: Neu5Ac(a2-3)Gal(b1-4)[Fuc(a1-3)]GlcNAc(b1-3)Gal
# In short: as §1
# [24] = molecular target: Neu5Ac(a2-3)Gal(b1-4)[Fuc(a1-3)]GlcNAc(b1-3)Gal(b1-4)GlcNAc
# In short: as §1
# [25] = molecular target: Neu5Ac(a2-3)Gal(b1-4)[Fuc(a1-3)]GlcNAc(b1-3)Gal(b1-4)[Fuc(a1-3)]GlcNAc(b1-3)Gal(b1-4)[Fuc(a1-3)]GlcNAc
# In short: as §1
# [26] = molecular target: Neu5Ac(a2-3)Gal(b1-4)[Fuc(a1-3)]GlcNAc(b1-3)GalNAc
# In short: as §1
# [27] = molecular target: Neu5Ac(a2-3)Gal(b1-4)[Fuc(a1-3)]GlcNAc(b1-6)[Gal(b1-3)]GalNAc
# In short: as §1
# [28] = molecular target: Neu5Ac(a2-3)Gal(b1-4)[Fuc(a1-3)]GlcNAc(b1-6)[Neu5Ac(a2-3)Gal(b1-3)]GalNAc
# In short: as §1
# [29] = molecular target: Neu5Ac(a2-3)Gal(b1-4)[Fuc(a1-3)]GlcNAc6S
# In short: as §1
# [30] = molecular target: Neu5Ac(a2-3)Gal6S(b1-4)GlcNAc
# In short: as §1
# [31] = molecular target: Neu5Ac(a2-3)Gal6S(b1-4)[Fuc(a1-3)]GlcNAc
# In short: as §1
# [32] = molecular target: Neu5Ac(a2-3)GalNAc
# In short: as §1
# [33] = molecular target: Neu5Ac(a2-3)GalNAc(b1-4)GlcNAc
# In short: as §1
# [34] = molecular target: Neu5Ac(a2-3)[GalNAc(b1-4)]Gal(b1-4)Glc
# In short: as §1
# [35] = molecular target: Neu5Ac(a2-3)[GalNAc(b1-4)]Gal(b1-4)GlcNAc
# In short: as §1
# [36] = molecular target: Neu5Ac(a2-3)[GalNAc(b1-4)]Gal(b1-4)GlcNAc(b1-3)GalNAc
# In short: as §1
# [37] = molecular target: Neu5Ac(a2-3)[Neu5Ac(a2-6)]GalNAc
# In short: as §1
# [38] = molecular target: Neu5Ac(a2-6)Gal
# In short: as §1
# [39] = molecular target: Neu5Ac(a2-6)Gal(b1-4)Glc
# In short: as §1
# [40] = molecular target: Neu5Ac(a2-6)Gal(b1-4)GlcNAc
# In short: as §1
binder,measurement,setting,value
B1,glycan array binding signal (z-score),[1],-0.367
same,glycan array binding signal (z-score),[2],-0.354
same,glycan array binding signal (z-score),[3],-0.366
same,glycan array binding signal (z-score),[4],-0.36
same,glycan array binding signal (z-score),[5],-0.374
same,glycan array binding signal (z-score),[6],-0.357
same,glycan array binding signal (z-score),[7],-0.332
same,glycan array binding signal (z-score),[8],-0.37
same,glycan array binding signal (z-score),[9],-0.264
same,glycan array binding signal (z-score),[10],-0.371
same,glycan array binding signal (z-score),[11],-0.362
same,glycan array binding signal (z-score),[12],-0.353
same,glycan array binding signal (z-score),[13],-0.149
same,glycan array binding signal (z-score),[14],-0.366
same,glycan array binding signal (z-score),[15],-0.372
same,glycan array binding signal (z-score),[16],-0.366
same,glycan array binding signal (z-score),[17],-0.348
same,glycan array binding signal (z-score),[18],-0.37
same,glycan array binding signal (z-score),[19],-0.351
same,glycan array binding signal (z-score),[20],-0.37
same,glycan array binding signal (z-score),[21],-0.369
same,glycan array binding signal (z-score),[22],-0.375
same,glycan array binding signal (z-score),[23],-0.366
same,glycan array binding signal (z-score),[24],2.3
same,glycan array binding signal (z-score),[25],-0.361
same,glycan array binding signal (z-score),[26],-0.309
same,glycan array binding signal (z-score),[27],0.037
same,glycan array binding signal (z-score),[28],-0.332
same,glycan array binding signal (z-score),[29],-0.373
same,glycan array binding signal (z-score),[30],-0.366
same,glycan array binding signal (z-score),[31],-0.367
same,glycan array binding signal (z-score),[32],-0.364
same,glycan array binding signal (z-score),[33],-0.362
same,glycan array binding signal (z-score),[34],-0.364
same,glycan array binding signal (z-score),[35],-0.144
same,glycan array binding signal (z-score),[36],-0.358
same,glycan array binding signal (z-score),[37],-0.374
same,glycan array binding signal (z-score),[38],-0.359
same,glycan array binding signal (z-score),[39],-0.362
same,glycan array binding signal (z-score),[40],-0.353
